According to the supplement of paper PMC8285479:
Where “and” joins values, the source holds several entries; their conditions need not be identical. Equal entries are not always repeated. Structures can show the parent of a compound that is named as a salt. ± gives the standard deviation of the averaged measurements. Over roughly 1,900 compounds, “normalised cell viability (NPI; 0 = phenylarsine oxide control, 1 = DMSO control)” has its median near 1; the lowest 2% begin near 0.039. This is one part of the list.

System: NCI-H1944
Assay: normalised cell viability (NPI; 0 = phenylarsine oxide control, 1 = DMSO control) (fraction of DMSO control); NCI-H1944 is a non-small cell lung cancer line; higher = more viable cells (less compound toxicity)
Conditions: 6 days
[1] = glucocorticoid arm: hydrocortisone 2.75 uM co-treatment, compound 1 µM
[2] = glucocorticoid arm: hydrocortisone 2.75 uM co-treatment, compound 5 µM
[3] = glucocorticoid arm: hydrocortisone 2.75 uM pre-treated 2 days and continued, compound 1 µM
[4] = glucocorticoid arm: hydrocortisone 2.75 uM pre-treated 2 days and continued, compound 5 µM
[5] = glucocorticoid arm: vehicle, compound 1 µM
[6] = glucocorticoid arm: vehicle, compound 5 µM
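Note: CTB read-out in 384-well plates, mean of triplicate wells, normalised per plate against 1 µM phenylarsine oxide and 0.1% DMSO, compounds added 24 h after seeding.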

SMILES	normalised cell viability [1]	normalised cell viability [2]	normalised cell viability [3]	normalised cell viability [4]	normalised cell viability [5]	normalised cell viability [6]
O=C(c1ccc(Cl)cc1Cl)n1nnc2ccccc21	0.996 ± 0.028	1.01 ± 0.055	1 ± 0.016	1.01 ± 0.033	1.003 ± 0.0055	0.999 ± 0.012
CN1C2CCC1CC(NC(=O)c1nn(C)c3ccccc13)C2 (stereo unspecified) [LY-278,584 maleate]	0.9863 ± 0.0067	0.977 ± 0.033	0.9957 ± 0.0075	1.03 ± 0.085	0.9753 ± 0.0051	0.9783 ± 0.0091
Cc1nnc(SCC2=C(C(=O)O)N3C(=O)[C@@H](NC(=O)Cn4cnnn4)[C@H]3SC2)s1 [Cefazolin sodium]	1.003 ± 0.0058	1.01 ± 0.011	0.998 ± 0.013	1.02 ± 0.014	0.989 ± 0.0089	1.005 ± 0.0087
Cc1cc(F)c(Nc2ncnc3cc(OCc4ccccc4)ccc23)cc1O	1.01 ± 0.016	0.975 ± 0.01	1.04 ± 0.02	1.02 ± 0.016	1.003 ± 0.0058	0.998 ± 0.011
CCCCC1(C2CCCC2)Cc2cc(OCC(=O)O)c(Cl)c(Cl)c2C1=O (stereo in doubt) [R(+)-Butylindazone]	0.9903 ± 0.0064	0.958 ± 0.011	0.988 ± 0.01	0.965 ± 0.028	0.983 ± 0.006	0.9887 ± 0.004
O=c1[nH]c2cc(Cl)c(Cl)cc2[nH]c1=O [6,7-Dichloroquinoxaline-2,3-dione]	1.01 ± 0.011	1.04 ± 0.011	1.003 ± 0.0061	1.04 ± 0.021	0.989 ± 0.007	1.002 ± 0.0068
c1cc(CN2CCCNCCNCCCNCC2)ccc1CN1CCCNCCNCCCNCC1 [Plerixafor]	1 ± 0.018	1 ± 0.017	1.01 ± 0.011	0.996 ± 0.016	1.006 ± 0.0063	1.01 ± 0.013
O=C1OC(=O)[C@H]2[C@@H]1[C@@H]1CC[C@H]2O1 [Norcantharidin]	1.007 ± 0.0058	1.03 ± 0.02	1.02 ± 0.011	0.924 ± 0.23	0.9903 ± 0.0011	1 ± 0.022
C=C(C)C1CC=C(C(=O)O)CC1 [(S)-(-)-Perillic acid]	1 ± 0.0095	0.999 ± 0.021	1.01 ± 0.018	0.999 ± 0.0017	1.01 ± 0.011	0.992 ± 0.012
NCCCCN [Putrescine dihydrochloride]	0.982 ± 0.0056	0.993 ± 0.022	1.01 ± 0.027	0.998 ± 0.014	0.977 ± 0.0056	0.9723 ± 0.0049
O=C(NCCCNc1nc(Nc2cccc(NC(=O)N3CCCC3)c2)ncc1I)c1cccs1	0.9797 ± 0.0095	0.993 ± 0.027	0.9587 ± 0.0025	1.05 ± 0.017	0.71 ± 0.01	0.3133 ± 0.0023
CN1CC[C@@H](c2c(O)cc(O)c3c(=O)cc(-c4ccccc4Cl)oc23)[C@@H]1CO	0.183 ± 0.011	0.031 ± 0.004	0.601 ± 0.026	0.0698 ± 0.0051	0.0431 ± 0.0039	0.00913 ± 0.002
O=C(O)c1cc([N+](=O)[O-])ccc1NCCCc1ccccc1 [5-Nitro-2-(3-phenylpropylamino)benzoic acid]	1	1 ± 0.026	1.01 ± 0.02	0.877 ± 0.24	0.9907 ± 0.0057	1 ± 0.013
S=c1[nH]cnc2nc[nH]c12 [Mercaptopurine]	0.956 ± 0.014	0.739 ± 0.047	0.9827 ± 0.0086	0.875 ± 0.036	0.9903 ± 0.0096	0.794 ± 0.028
COc1cc2c(cc1OC)-c1c/c(=N\c3c(C)cc(C)cc3C)n(C)c(=O)n1CC2 [Trequinsin hydrochloride]	1.03 ± 0.015	1.02 ± 0.022	0.908 ± 0.2	1.033 ± 0.0058	1.023 ± 0.0058	1.05 ± 0.035
CCNc1nc(Nc2cc(F)c(C(=O)N3CCOCC3)cc2OC)ncc1C(F)(F)F	0.9993 ± 0.0097	1.017 ± 0.0058	1.005 ± 0.0092	1.02 ± 0.025	0.9993 ± 0.0011	1.013 ± 0.0058
O=C1Nc2ccc(I)cc2/C1=C/c1cc(Br)c(O)c(Br)c1	1.02 ± 0.01	1.05 ± 0.01	1.007 ± 0.0058	1.04 ± 0.017	1.001 ± 0.009	1.013 ± 0.0058

SMILES	normalised cell viability [1]	normalised cell viability [2]	normalised cell viability [3]	normalised cell viability [4]	normalised cell viability [5]	normalised cell viability [6]
O=C1N=C(O)NC1(c1ccccc1)c1ccccc1 [Phenytoin sodium]	0.9917 ± 0.0093	0.953 ± 0.024	0.997 ± 0.0017	0.962 ± 0.021	0.9957 ± 0.0015	0.9883 ± 0.0042
CN(C)c1ccc(-c2nc3ncc(Cl)c(N4CCN(CC(=O)Nc5nccs5)CC4)c3[nH]2)cc1	0.921 ± 0.049	0.934 ± 0.03	0.947 ± 0.037	0.941 ± 0.02	0.957 ± 0.047	0.982 ± 0.024
Cc1nc2ccc(NC(=O)Nc3ccnc4cccnc34)cc2o1	1.01 ± 0.018	1.017 ± 0.0058	1.02 ± 0.015	1.001 ± 0.0081	1.007 ± 0.0058	0.993 ± 0.0066
COc1cc(/C=C(\C#N)C(=O)c2ccc(O)c(O)c2)cc(I)c1O [I-OMe-Tyrphostin AG 538]	0.9953 ± 0.0064	1.01 ± 0.01	1.01 ± 0.025	1.02 ± 0.02	0.998 ± 0.012	0.99 ± 0.0027
COc1ccc(CCc2nc3cc(-c4c(C)noc4C)ccc3n2C[C@H](C)N2CCOCC2)cc1Cl	0.989 ± 0.012	1.05 ± 0.01	0.967 ± 0.017	0.997 ± 0.02	1.01 ± 0.012	1.017 ± 0.0058
CNCc1ccc(-c2[nH]c3cc(F)cc4c3c2CCNC4=O)cc1	0.982 ± 0.0036	1 ± 0.071	0.968 ± 0.0095	1.01 ± 0.022	0.989 ± 0.013	0.948 ± 0.022
COc1ccc([C@@H]2Sc3ccccc3N(CCN(C)C)C(=O)[C@@H]2OC(C)=O)cc1 [Diltiazem hydrochloride]	0.9967 ± 0.0058	0.974 ± 0.026	0.988 ± 0.015	0.982 ± 0.011	0.9893 ± 0.0046	0.9893 ± 0.006
Cc1cn([C@H]2C[C@H](N=[N+]=[N-])[C@@H](CO)O2)c(=O)[nH]c1=O [3'-Azido-3'-deoxythymidine]	0.99 ± 0.011	0.994 ± 0.0056	0.9893 ± 0.0081	0.989 ± 0.016	0.983 ± 0.017	0.9757 ± 0.0064
CC(=N)NCc1cccc(CN)c1 [1400W dihydrochloride]	1.01 ± 0.011	1.02 ± 0.027	1.017 ± 0.0058	1.037 ± 0.0058	0.998 ± 0.0035	1.003 ± 0.0058
CC(C[N+](C)(C)C)OC(N)=O (stereo unspecified) [Bethanechol chloride]	1.01	–	1.02 and 1.01	–	1.01	–
Cc1c(NC(=O)OC[C@@H]2COCCN2)cn2ncnc(Nc3ccc4c(cnn4Cc4cccc(F)c4)c3)c12	0.92 ± 0.019	0.887 ± 0.015	0.932 ± 0.018	0.946 ± 0.016	0.925 ± 0.025	0.839 ± 0.02
Cc1ccc2nc(NCCN)c3ncc(C)n3c2c1	0.9797 ± 0.0068	0.887 ± 0.012	1 ± 0.016	0.862 ± 0.015	0.9963 ± 0.0035	0.9863 ± 0.0064
N[C@@H](Cc1c[nH]cn1)C(=O)O [L-Histidine hydrochloride]	1.017 ± 0.0058	0.996 ± 0.012	1 ± 0.014	1.02 ± 0.01	0.9973 ± 0.0038	0.9973 ± 0.0046
N=C(N)SCCc1ccc(CCSC(=N)N)cc1 [1,4-PBIT dihydrobromide]	0.956 ± 0.0085	1	0.992 ± 0.016	0.979 ± 0.015	0.9697 ± 0.004	0.9727 ± 0.0081
Cc1ccc(Sc2ccccc2N2CCNCC2)c(C)c1	1.013 ± 0.0058	0.9257 ± 0.0035	1.03 ± 0.021	0.986 ± 0.032	1.003 ± 0.0058	0.969
CN1CCC(CNc2ccc3ncc(-c4cccc(OC(F)(F)F)c4)n3n2)CC1 [SGI-1776 free base]	0.928 ± 0.019	0.601 ± 0.048	0.952 ± 0.014	0.718 ± 0.086	0.9658 ± 0.0071	0.534 ± 0.062
C[C@H](NC(=O)CCc1nc2ccccc2c(=O)[nH]1)c1ccccc1	0.9887 ± 0.0083	1.02 ± 0.017	0.973 ± 0.024	1.03 ± 0.017	1.003 ± 0.0058	1.01 ± 0.01
